Data reported in the supplement of paper PMC4604168 (melanoma cell lines).
This is one part of the list. Repeats are few or missing, and single values can be far off.
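Also: cell number obtained by counting DAPI-stained nuclei in high-throughput microscope images with image analysis software, screen run in 1,536-well plates.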

The compounds below were run on WM115 (assay: cell count relative to DMSO control; melanoma cells; higher = more viable cells). Conditions: library dose: low library concentration; 72 h.
For `CS(=O)(=O)c1ccc(C(=O)Nc2ccc(Cl)c(-c3ccccn3)c2)c(Cl)c1` [vismodegib] + CC(=O)c1c(C)c2cnc(Nc3ccc(N4CCNCC4)cn3)nc2n(C2CCCC2)c1=O [palbociclib] (first compound 1 µM, partner dose 0.04 µM), the cell count was 91.2%.
In the case of `CN(c1ncccc1CNc1nc(Nc2ccc3c(c2)CC(=O)N3)ncc1C(F)(F)F)S(C)(=O)=O` + Nc1nc(F)nc2c1ncn2[C@@H]1O[C@H](CO)[C@@H](O)[C@@H]1O [fludarabine] (first compound 0.08 µM, partner dose 0.2 µM), the cell count is reported as 67.1%.
`CS(=O)(=O)c1ccc(C(=O)Nc2ccc(Cl)c(-c3ccccn3)c2)c(Cl)c1` [vismodegib] + COc1ccc(COc2ccc(Cc3cnc(N)nc3N)cc2OC)cc1 [GW2580] (first compound 1 µM, partner dose 1 µM) was tested, and the cell count was 106%.
Compound `CN(c1ncccc1CNc1nc(Nc2ccc3c(c2)CC(=O)N3)ncc1C(F)(F)F)S(C)(=O)=O` + O=S(=O)(c1ccccc1)N(CC(F)(F)F)c1ccc(C(O)(C(F)(F)F)C(F)(F)F)cc1 [T0901317] (first compound 0.08 µM, partner dose 1.4 µM) has a cell count of 71.1%.
Compound `CCCS(=O)(=O)Nc1ccc(F)c(C(=O)c2c[nH]c3ncc(Cl)cc23)c1F` + Cn1cc(/C=C2\C(=O)Nc3cccnc32)c2ccccc21 [GW441756] (first compound 0.08 µM, partner dose 0.4 µM) has a cell count of 97.5%.
`C=C(c1ccc(C(=O)O)cc1)c1cc2c(cc1C)C(C)(C)CCC2(C)C` [Bexarotene] + Oc1nc(-c2ccc(C(F)(F)F)cc2)nc2c1CSCC2 [XAV939] (first compound 2 µM, partner dose 2 µM) was tested, and the cell count was 88.3%.
For `CN(c1ncccc1CNc1nc(Nc2ccc3c(c2)CC(=O)N3)ncc1C(F)(F)F)S(C)(=O)=O` + COc1cc2c(Oc3ccc4[nH]c(C)cc4c3F)ncnc2cc1OCCCN1CCCC1 [cediranib] (first compound 0.08 µM, partner dose 0.4 µM), the cell count was 86.6%.
In the case of `CCCS(=O)(=O)Nc1ccc(F)c(C(=O)c2c[nH]c3ncc(Cl)cc23)c1F` + COc1ccc(COc2ccc(Cc3cnc(N)nc3N)cc2OC)cc1 [GW2580] (first compound 0.08 µM, partner dose 1 µM), the cell count is reported as 92.8%.
With `NC1(c2ccc(-c3nc4ccn5c(=O)[nH]nc5c4cc3-c3ccccc3)cc2)CCC1` + O=C(O)c1ccc2c(c1)nc(Nc1cccc(Cl)c1)c1ccncc12 [CX4945] (first compound 0.4 µM, partner dose 0.4 µM) the cell count was 72.5%.
For `CN(c1ncccc1CNc1nc(Nc2ccc3c(c2)CC(=O)N3)ncc1C(F)(F)F)S(C)(=O)=O` + O=C(Nc1cccc(Cl)c1)Nc1ncc(CCNc2ncnc3ccsc23)s1 [SNS314] (first compound 0.08 µM, partner dose 0.0008 µM), the cell count was 69%.
With `CN(c1ncccc1CNc1nc(Nc2ccc3c(c2)CC(=O)N3)ncc1C(F)(F)F)S(C)(=O)=O` + O=C(CCCCCCC(=O)Nc1ccccc1)NO [vorinostat] (first compound 0.08 µM, partner dose 0.08 µM) the cell count was 89.7%.
`NC1(c2ccc(-c3nc4ccn5c(=O)[nH]nc5c4cc3-c3ccccc3)cc2)CCC1` + CS(=O)(=O)CCNCc1ccc(-c2ccc3ncnc(Nc4ccc(OCc5cccc(F)c5)c(Cl)c4)c3c2)o1 [lapatinib] (first compound 0.4 µM, partner dose 0.8 µM) was tested, and the cell count was 77%.
`C=C(c1ccc(C(=O)O)cc1)c1cc2c(cc1C)C(C)(C)CCC2(C)C` [Bexarotene] + c1cc(-c2cnn3cc(-c4ccc(OCCN5CCCCC5)cc4)cnc23)ccn1 [Dorsomorphin] (first compound 2 µM, partner dose 0.4 µM) gave a cell count of 91.5%.
`CN(c1ncccc1CNc1nc(Nc2ccc3c(c2)CC(=O)N3)ncc1C(F)(F)F)S(C)(=O)=O` + CC(C)C[C@H](NC(=O)[C@H](Cc1ccccc1)NC(=O)c1cnccn1)B(O)O [Bortezomib] (first compound 0.08 µM, partner dose 0.001 µM) showed a cell count of 82%.
In the case of `NC1(c2ccc(-c3nc4ccn5c(=O)[nH]nc5c4cc3-c3ccccc3)cc2)CCC1` + COc1cc(Nc2ncc(F)c(Nc3ccc4c(n3)NC(=O)C(C)(C)O4)n2)cc(OC)c1OC [Tamatinib] (first compound 0.4 µM, partner dose 0.4 µM), the cell count is reported as 57.8%.
In the case of `C=C(c1ccc(C(=O)O)cc1)c1cc2c(cc1C)C(C)(C)CCC2(C)C` [Bexarotene] + OCc1c[nH]c2ccccc12 [Indole-3-carbinol] (first compound 2 µM, partner dose 0.8 µM), the cell count is reported as 99.3%.
With `C=C(c1ccc(C(=O)O)cc1)c1cc2c(cc1C)C(C)(C)CCC2(C)C` [Bexarotene] + N#Cc1c(O)c2c(-c3ccc(-c4ccccc4O)cc3)csc2[nH]c1=O [A769662] (first compound 2 µM, partner dose 2 µM) the cell count was 109%.
Work on `C=C(c1ccc(C(=O)O)cc1)c1cc2c(cc1C)C(C)(C)CCC2(C)C` [Bexarotene] + CCc1ccc(CCOc2ccc(CC3SC(=O)NC3=O)cc2)nc1 [pioglitazone] (first compound 2 µM, partner dose 2 µM) yielded a cell count of 104%.
Work on `NC1(c2ccc(-c3nc4ccn5c(=O)[nH]nc5c4cc3-c3ccccc3)cc2)CCC1` + NCC(=O)Nc1ccc(-n2nc(C(F)(F)F)cc2-c2ccc3c(ccc4ccccc43)c2)cc1 [OSU03012] (first compound 0.4 µM, partner dose 1 µM) yielded a cell count of 86.4%.
In the case of `NC1(c2ccc(-c3nc4ccn5c(=O)[nH]nc5c4cc3-c3ccccc3)cc2)CCC1` + c1cc(-c2cnn3cc(-c4ccc(OCCN5CCCCC5)cc4)cnc23)ccn1 [Dorsomorphin] (first compound 0.4 µM, partner dose 0.4 µM), the cell count is reported as 79.1%.
In the case of `NC1(c2ccc(-c3nc4ccn5c(=O)[nH]nc5c4cc3-c3ccccc3)cc2)CCC1` + C[C@]1(c2nc3c(C(N)=O)cccc3[nH]2)CCCN1 [Veliparib] (first compound 0.4 µM, partner dose 1.4 µM), the cell count is reported as 69%.
With `C=C(c1ccc(C(=O)O)cc1)c1cc2c(cc1C)C(C)(C)CCC2(C)C` [Bexarotene] + CCCCCCCCCCCC1=C(O)C(=O)C=C(O)C1=O [Embelin] (first compound 2 µM, partner dose 1.2 µM) the cell count was 98.1%.
`CS(=O)(=O)c1ccc(C(=O)Nc2ccc(Cl)c(-c3ccccn3)c2)c(Cl)c1` [vismodegib] + COc1ccc(Cl)c(Nc2nc3ccccc3nc2NS(=O)(=O)c2cccc(NC(=O)C(C)(C)N)c2)c1 [XL147] (first compound 1 µM, partner dose 0.8 µM) showed a cell count of 100%.
Work on `NC1(c2ccc(-c3nc4ccn5c(=O)[nH]nc5c4cc3-c3ccccc3)cc2)CCC1` + CC1(C)NC(=O)N(c2ccc([N+](=O)[O-])c(C(F)(F)F)c2)C1=O [nilutamide] (first compound 0.4 µM, partner dose 1 µM) yielded a cell count of 78.2%.
In the case of `CS(=O)(=O)c1ccc(C(=O)Nc2ccc(Cl)c(-c3ccccn3)c2)c(Cl)c1` [vismodegib] + COc1cc2ncnc(Nc3ccc(Oc4ccccc4)cc3)c2cc1OC [SrcI1] (first compound 1 µM, partner dose 2 µM), the cell count is reported as 104%.
In the case of `CS(=O)(=O)c1ccc(C(=O)Nc2ccc(Cl)c(-c3ccccn3)c2)c(Cl)c1` [vismodegib] + CN(C)S(=O)(=O)c1ccc2c(c1)/C(=C/c1cc3c([nH]1)CCCC3)C(=O)N2 [SU6656] (first compound 1 µM, partner dose 0.4 µM), the cell count is reported as 92.5%.
For `CN(c1ncccc1CNc1nc(Nc2ccc3c(c2)CC(=O)N3)ncc1C(F)(F)F)S(C)(=O)=O` + O=C1NC(=O)/C(=C/c2ccc(-c3ccc(F)cc3O)o2)S1 [AS252424] (first compound 0.08 µM, partner dose 1 µM), the cell count was 77.8%.
Work on `CN(c1ncccc1CNc1nc(Nc2ccc3c(c2)CC(=O)N3)ncc1C(F)(F)F)S(C)(=O)=O` + Oc1cc(-c2nc(-c3ccccc3)[nH]c2-c2ccncc2)ccc1Cl [L779450] (first compound 0.08 µM, partner dose 0.2 µM) yielded a cell count of 62%.
Compound `C=C(c1ccc(C(=O)O)cc1)c1cc2c(cc1C)C(C)(C)CCC2(C)C` [Bexarotene] + Cn1c(Nc2ccc(C(F)(F)F)cc2)nc2cc(Oc3ccnc(-c4ncc(C(F)(F)F)[nH]4)c3)ccc21 [CHIR265] (first compound 2 µM, partner dose 0.08 µM) has a cell count of 82.9%.
With `CCCS(=O)(=O)Nc1ccc(F)c(C(=O)c2c[nH]c3ncc(Cl)cc23)c1F` + COc1ccc(Cl)c(Nc2nc3ccccc3nc2NS(=O)(=O)c2cccc(NC(=O)C(C)(C)N)c2)c1 [XL147] (first compound 0.08 µM, partner dose 0.8 µM) the cell count was 87.5%.
For `CCCS(=O)(=O)Nc1ccc(F)c(C(=O)c2c[nH]c3ncc(Cl)cc23)c1F` + CN(C)S(=O)(=O)c1ccc2c(c1)/C(=C/c1cc3c([nH]1)CCCC3)C(=O)N2 [SU6656] (first compound 0.08 µM, partner dose 0.4 µM), the cell count was 79.7%.
For `C=C(c1ccc(C(=O)O)cc1)c1cc2c(cc1C)C(C)(C)CCC2(C)C` [Bexarotene] + COc1cc(Nc2ncc(F)c(Nc3ccc4c(n3)NC(=O)C(C)(C)O4)n2)cc(OC)c1OC [Tamatinib] (first compound 2 µM, partner dose 0.4 µM), the cell count was 84.5%.
Work on `CS(=O)(=O)c1ccc(C(=O)Nc2ccc(Cl)c(-c3ccccn3)c2)c(Cl)c1` [vismodegib] + CC(=O)O[C@@]12CO[C@@H]1C[C@H](O)[C@@]1(C)C(=O)[C@H](O)C3=C(C)[C@@H](OC(=O)[C@H](O)[C@@H](NC(=O)OC(C)(C)C)c4ccccc4)C[C@@](O)([C@@H](OC(=O)c4ccccc4)[C@H]21)C3(C)C [Docetaxel] (first compound 1 µM, partner dose 0.0001 µM) yielded a cell count of 70.5%.
